# Experimental data taken from PubChem BioAssay AID1347417 (National Center for Advancing Translational Sciences (NCATS), 2020).
# Out of some 120,000 compounds screened, about 5,300 (4.4%) were called active. This list was built around the results that the source calls inconclusive (neither active nor inactive); the mix of calls is not that of the screen. The call rests on the fitted dose curve; in most records, active means well fitted inhibition curve with a large enough effect; inconclusive means small, poorly fitted or top-dose-only effect; inactive means no such curve, though single readings can be large or run the other way. A potency beside an inconclusive call is a rough fit, not a confirmed value.
# Assay: qHTS Primary assay for Inhibitors of Plasmodium falciparum Dd2 growth in vitro; further: nearly all actives have a fitted effect of over 65% in size;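 on activity, negative = inhibition: plate controls were DMSO vehicle for no effect and reference drug for full effect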
# Details: P. falciparum Dd2 growth, SYBR Green, 72 h; activity, negative = inhibition: at 28.9 µM (top of the series) unless noted; series mostly up to 28.9 µM
# Outline: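 Infected erythrocytes (Dd2, 0.3% parasitemia, 2.5% hematocrit final) are added to compound in RPMI-1640/Albumax II medium, grown 72 h at 37C in low oxygen, then lysed with saponin/Triton-X containing SYBR Green and read by fluorescence.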
# Potency means the concentration at half of the fitted maximal effect; tags describe the fitted curve by direction and shape.
Structure (SMILES),Potency,"activity, negative = inhibition",outcome
O=C(c1ccc2c(c1)N(Cc1ccccc1F)C(=O)c1ccccc1S2(=O)=O)N1CCN(c2ccccc2F)CC1,"inconclusive: 0.891 µM [inhibitor, single point]",–,–
COc1ccccc1NC(=O)Cn1ccn2nc(-c3ccc(F)cc3)c(CO)c2c1=O,"inconclusive: 2.51 µM [inhibitor, full curve, poor fit]",–,–
O=C(NCCC1CCN(C(=O)Nc2cccc(F)c2)CC1)c1ccccc1,"inconclusive: 11.2 µM [inhibitor, partial curve, poor fit]",–,–
CCc1ccc([S+](=O)([O-])c2nnn3c2nc(N2CCC(F)CC2)c2ccccc23)cc1,"inconclusive: 17.8 µM [inhibitor, single point]",–,–
O=C(NC[C@H]1O[C@@H](CC(=O)N2CCN(c3ccccn3)CC2)[C@H](O)[C@@H]1O)c1cccc(F)c1,–,inactive: 1.12%,–
CN(Cc1cccnc1)c1nc2c(c(=O)[nH]1)CCN(Cc1cccc(F)c1F)CC2,"inconclusive: 3.98 µM [inhibitor, single point]",–,–
COc1ccc(CC(=O)N2CCc3nc(C4CC4)nc(-c4ccc(Cl)cc4)c3C2)cc1,–,–,inactive
O=C(c1cc(-c2ccccc2O)on1)N1CCCCC1,"inconclusive: 8.91 µM [inhibitor, partial curve]",–,–
COc1ccc(CN2CC[C@@H]3[C@H]2C(=O)NC[C@H](CCC(=O)NCc2ccco2)N3C)cc1,–,inactive: 34.3%,–
COc1ccc(OC)c(CN2CCC3(CC2)CC3C(=O)N(C)CCOc2ccc(C)cc2)c1 (configuration not stated),–,inactive: -5.09%,–
COCCNC(=O)[C@H]1C[C@H](Oc2ccccc2)CN1Cc1cn(C)c2ccccc12,"inconclusive: 11.2 µM [inhibitor, single point]",–,–
CCNC(=O)N[C@@H]1C=C[C@@H](c2c(C)nn(-c3ccc(C(F)(F)F)cc3)c2C)C1,active: 4.47 µM,–,–
CNC(=O)C1CCC(Cn2c(=O)c3sccc3n(CC(=O)NCc3ccc(OC)cc3)c2=O)CC1 (configuration not stated),"inconclusive: 20 µM [inhibitor, partial curve, poor fit]",–,–
Cc1ccccc1-c1cc(O)c2c(c1)CNCCO2,"inconclusive: 20 µM [inhibitor, single point]",–,–
Cc1ccccc1NC(=O)NCC1CCOCC1,–,inactive: 13%,–
CC(C)N1C[C@@H](CO)[C@H](c2nc(-c3cccnc3)no2)C1,"inconclusive: 10 µM [inhibitor, partial curve, poor fit]",–,–
COCCn1c(C(=O)OC)c(NC(=O)Cc2ccccc2)c2cc(NC3CCCCC3)cnc21,–,inactive: -12.5%,–
Cc1cc(C)cc(NC(=O)c2ccc3c(c2)N(C)C2CCCN2C3=O)c1 (configuration not stated),–,–,inactive
O=C(Nc1ccccc1)N[C@H]1[C@H](O)[C@@H](Oc2ccccc2)[C@@H]2OC[C@H]1O2,"inconclusive: 0.355 µM [inhibitor, full curve]",–,–
CCOc1ccc(CC(=O)N2CCC[C@H]2c2nc(-c3ccc(OC)c(OC)c3)no2)cc1OCC,–,inconclusive: -30.9% [inhibitor],–
CC(=O)N1CCC(NC[C@H]2Cn3c(-c4ccc5c(c4)OCCO5)cnc3CO2)CC1,–,–,inactive [at 44.1 µM]
COCCCNC(=O)c1ccc(-n2c(-c3ccccc3)cc3c2CCCC3)cc1,"inconclusive: 10 µM [inhibitor, single point]",–,–
O=C(Cc1ccccn1)N1CCCC(c2nn(-c3ccccc3)c(=O)[nH]2)C1 (configuration not stated),–,inactive: -4.44%,–

Structure (SMILES),Potency,"activity, negative = inhibition",outcome
O=C(NCc1ccncc1)c1ccc2c(c1)OCCN(c1ccccc1)C2,–,inactive: -16.6% [at 44.1 µM],–
Cc1ccccc1N1CCCN(Cc2ccccc2OCCO)CC1,"inconclusive: 4.47 µM [inhibitor, partial curve, poor fit]",–,–
O=C(C1CCOC1)N1CC(Oc2cccc(-c3nc(-c4ccccc4)no3)c2)C1 (configuration not stated),–,inactive: 15.8% [at 5.79 µM],–
CCn1cc(S(=O)(=O)c2ccccc2)c(=O)c2cc(F)c(N3CCCC3)cc21,"inconclusive: 10 µM [inhibitor, partial curve]",–,–
Cc1cc(C)cc(NS(=O)(=O)c2ccc3[nH]cc(C(=O)NC4CCCCC4)c(=O)c3c2)c1,"inconclusive: 10 µM [inhibitor, single point]",–,–
O=C(NCCOc1ccccc1)c1cnc2c(c1)N(C(=O)Cc1cccc(C(F)(F)F)c1)CCC2,"inconclusive: 4.47 µM [inhibitor, partial curve, poor fit]",–,–
C#C[C@H]1CN2CC[C@H]1C[C@@H]2CNS(=O)(=O)c1cccs1,active: 8.91 µM,–,–
Cc1ccc(Cl)cc1NC(=O)Cn1c(=O)n(Cc2ccccc2)c(=O)c2oc3ccccc3c21,"inconclusive: 11.2 µM [inhibitor, partial curve, poor fit]",–,–
CCOC(=O)C1(C/C=C/c2ccccc2)CCCNC1 (configuration not stated),active: 3.98 µM,–,–
Cc1ccc(CNC(=O)CCc2c(C)nc3nc(C)nn3c2C)cc1,"inconclusive: 0.0794 µM [inhibitor, full curve, poor fit]",–,–
COc1ccccc1NC(=O)Nc1ccc(=O)n2c1[C@@H]1C[C@@H](CN(C3CCN(C)CC3)C1)C2,–,inactive: 19.2%,–
CC(C)CN1CCNC(=O)C1CC(=O)NCc1cc(Cl)ccc1Cl (configuration not stated),–,inactive: -3.18%,–
CCc1nc2c(c(-c3ccc(Cl)cc3)n1)CN(Cc1ccc(OC(F)(F)F)cc1)CC2,active: 8.91 µM,–,–
CCOc1ccc2c(n1)CCN(C(=O)Nc1cc(C)cc(C)c1)C2,"inconclusive: 17.8 µM [inhibitor, single point]",–,–
O=C(C1CCC(CO)CC1)N1CCC2(CCC(=O)N(C3CC3)C2)CC1 (configuration not stated),–,inactive: -12.8%,–
COc1ccc(CN2CCC3(CC(c4cccnc4)=NO3)C2)cc1 (configuration not stated),–,inactive: -8.48%,–
CC(C)(C)C(=O)Cn1c(=O)n(-c2ccccc2)c(=O)c2c3c(sc21)CCC3,–,inactive: -0.035%,–
Cc1ccc2oc3c(c(=O)c2c1)C(c1ccc([N+](=O)[O-])cc1)N(CCCN1CCOCC1)C3=O (configuration not stated),active: 10 µM,–,–
CN1[C@@H](CCC(=O)NCc2ccccc2)CNC(=O)[C@@H]2[C@H]1CCN2C1CCOCC1,–,inactive: 20.1% [at 44.1 µM],–
CCOC(=O)C1CCN(C(=O)Cn2ncc3c4ccccc4n(Cc4ccc(F)cc4)c3c2=O)CC1,"inconclusive: 8.91 µM [inhibitor, single point]",–,–
COc1ccc(-c2cnc3[nH]cc(CC(=O)N4CCCC4)c3c2)cc1,"inconclusive: 31.6 µM [inhibitor, single point]",–,–
CC(C)(Oc1nn(CCN2CCOCC2)c2ccccc12)C(=O)NCc1ccncc1,–,–,inactive [at 44.1 µM]
Cc1cnc(C(=O)N2CCC3(CC2)CC(N(Cc2ccccc2)C2CC2)CCO3)cn1 (configuration not stated),"inconclusive: 8.91 µM [inhibitor, partial curve, poor fit]",–,–

Structure (SMILES),Potency,"activity, negative = inhibition",outcome
Cc1ccc(-n2c(C3CCN(C(=O)c4ccc(C(C)(C)C)cc4)CC3)n[nH]c2=O)cc1,active: 4.47 µM,–,–
COc1ccc(-c2nc(SCC(=O)Nc3ccc4c(c3)OCCO4)c(-c3ccc(F)cc3)[nH]2)cc1OC,"inconclusive: 11.2 µM [inhibitor, single point]",–,–
O=C(c1ccc2c(c1)N(Cc1ccc(F)cc1)C(=O)c1ccccc1S2(=O)=O)N1CCN(Cc2ccccc2)CC1,–,–,inactive
Cc1cccc(CN2CCCCCCNC(=O)CC2c2ccccc2)c1 (configuration not stated),"inconclusive: 8.91 µM [inhibitor, partial curve, poor fit]",–,–
CCOc1ccc(C(=O)Nc2cccc(NC(=O)c3ccc(C(C)(C)C)cc3)c2)cc1Br,"inconclusive: 2 µM [inhibitor, partial curve]",–,–
CC(=O)c1cccc(NC(=O)C2CCCN(C(=O)c3cnn(-c4ccccc4)c3-n3cccc3)C2)c1 (configuration not stated),"inconclusive: 17.8 µM [inhibitor, single point]",–,–
CCC(CC)C(=O)Nc1ccc2nc(SCC(=O)N3CCc4ccccc43)sc2c1,"inconclusive: 11.2 µM [inhibitor, single point]",–,–
CCC1Oc2ccc(NC(=O)c3ccccc3OC)cc2CN(Cc2ccc(OC)cc2)C1=O (configuration not stated),"inconclusive: 1.26 µM [inhibitor, full curve, poor fit]",–,–
Cc1cccc(NC(=O)CC2CCCN(c3cnn(CC4CC4)c(=O)c3)C2)c1 (configuration not stated),"inconclusive: 17.8 µM [inhibitor, single point]",–,–
C=CCN(CC=C)Cc1c(C(=O)N2CCN(C3CCCCC3)CC2)nc2ccccn12,"inconclusive: 20 µM [inhibitor, single point]",–,–
COc1cc(Cl)c(C)cc1NC(=O)CN1C(=O)NC2(CCOCC2)C1=O,–,inactive: -28.4%,–
CCN(Cc1cccc(OCCO)c1)CC1CCCN(CCc2cccc(OC)c2)C1 (configuration not stated),active: 10 µM,–,–
COc1cccc(CN2Cc3cc(NC(=O)c4cc(OC)cc(OC)c4)ccc3OCC2=O)c1,active: 4.47 µM,–,–
CCCCOc1ccc(C(=O)N2CCC(c3n[nH]c(=O)n3-c3ccccc3)CC2)cc1,"inconclusive: 17.8 µM [inhibitor, single point]",–,–
COc1ccc(Br)cc1CNC(=O)c1ccc2c(c1)nc1n2CCC(C)C1 (configuration not stated),–,inactive: -22.4%,–
COCCCNc1ncnc2c1CN(C1CCCNC1)C(=O)CN2C (configuration not stated),–,inconclusive: -153% [inhibitor],–
COCC1CN(Cc2ccc(C(C)C)cc2)CC12CCNCC2 (configuration not stated),"inconclusive: 4.47 µM [inhibitor, partial curve, poor fit]",–,–
Cc1cccc(NC(=O)CSc2nc3ccccc3nc2N2CCCCC2)c1C,"inconclusive: 15.8 µM [inhibitor, single point]",–,–
COc1cc(NC(=O)C(Cc2ccccc2)NS(=O)(=O)c2cccc3nsnc23)cc(OC)c1 (configuration not stated),–,inactive: -29.2%,–
Cc1nn2c(c1-c1cccnc1N1CCOCC1)N(Cc1ccccc1F)CCC2,"inconclusive: 3.55 µM [inhibitor, single point]",–,–
COc1cccc(NC(=O)N2CCC(Oc3ncccc3C(=O)N(C)C)C2)c1 (configuration not stated),–,inactive: -14.3%,–
